# Test results published in PubChem BioAssay (NCATS).
# Several values for one entry are separate records, joined by “and”; a condition that tells them apart may be missing. Equal values may be shown once. The shares of active, inactive and inconclusive entries below differ from those in the screen. A potency beside an inconclusive call is a rough fit, not a confirmed value. Activity calls are given as the source filed them. Calls come from the whole dose curve; as a rule, active = well fitted curve in the direction sought with a large enough effect; inconclusive = small, poorly fitted or top-dose-only effect, or another doubt; inactive = no such curve, though single readings can be large; an effect the other way counts as inactive or inconclusive.
# Experiments:
# [1] = NS1 protein of Zika virus - qHTS assay to identify small molecule inhibitors in human HEK 293 cells (AID 1347053); note: nearly all actives have a fitted effect of over 55% in size
# Procedure, shortened: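 HEK 293 cells pretreated with compound for 1 h, then infected with ZIKV MR766 (MOI 0.5) for 24 h at 37 C. NS1 detected by TR-FRET with two anti-NS1 antibodies; normalized to uninfected (0%) and infected (100%) wells.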
# [2] = qHTS of pediatric cancer cell lines to identify multiple opportunities for drug repurposing: Primary screen for DAOY cells (AID 1347090); settings: DAOY medulloblastoma viability, CellTiter-Glo luminescence, 48 h; activity change, negative = cytotoxic: at 46 µM (top of the series); note: nearly all actives have a fitted effect of over 55% in size
# Procedure, shortened: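 Cell viability, CellTiter-Glo luminescence; 500-1,000 cells/well, 8- or 11-point titration, 48 h compound exposure at 37 degrees C, 5% CO2. Controls: DMSO neutral, bortezomib 2.3 µM final as positive.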
# [3] = qHTS of pediatric cancer cell lines to identify multiple opportunities for drug repurposing: Primary screen for BT-37 cells (AID 1347094)
# Procedure, shortened: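 Cells seeded at 500-1,000 cells/well in growth media, rested 5 hours at 37 degrees C, 5% CO2, then dosed; MIPE compounds at 11-point (from 0.78 nM) and NPC at 8-point (from 0.59 nM) final concentrations. Viability by CellTiter-Glo luminescence after 48 hours.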
# [4] = qHTS of pediatric cancer cell lines to identify multiple opportunities for drug repurposing: Primary screen for U-2 OS cells (AID 1347096); note: nearly all actives have a fitted effect of over 50% in size
# Procedure, shortened: (§1)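 Cells (500-1,000/well) rested 5 h, then received compounds for 48 h; metabolically active cells were measured by CellTiter-Glo luminescence. Final concentrations spanned up to 46 µM (MIPE, 11-point) or 0.59 nM-46 µM (NPC, 8-point) in primary screens, 11-point in follow-ups.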
# [5] = qHTS of pediatric cancer cell lines to identify multiple opportunities for drug repurposing: Primary screen for LAN-5 cells (AID 1347100)
# Procedure, shortened: as §1
# [6] = Quantitative High-Throughput drug screen in 47 multiple myeloma cell lines against the NCATS MIPE library collection: KHM11_PLB cell viability assay (AID 1918962); settings: KHM11 myeloma cell viability, CellTiter-Glo ATP luminescence, 48 h; series mostly up to 45.8 µM; note: nearly all actives have a fitted effect of over 35% in size
# Procedure, shortened: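 Primary qHTS used for cherry-picking: cells at 500/well, library compounds for 48 h (37C, 5% CO2), luminescent ATP assay.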
# [7] = Quantitative High-Throughput drug screen in 47 multiple myeloma cell lines against the NCATS MIPE library collection: OCIMY1_PLB cell viability assay (AID 1918979); note: nearly all actives have a fitted effect of over 35% in size
# Procedure, shortened: (§2)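 Plated at 500 cells per well, myeloma lines received MIPE 4.0 compounds by pin tool. Following 48 h culture at 37 °C, CellTiter-Glo luminescence gave viability relative to DMSO and media-only controls.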
# [8] = Quantitative High-Throughput drug screen in 47 multiple myeloma cell lines against the NCATS MIPE library collection: KMS34_JCRB cell viability assay (AID 1918985); note: nearly all actives have a fitted effect of over 40% in size
# Procedure, shortened: as §2
# [9] = Quantitative High-Throughput drug screen in 47 multiple myeloma cell lines against the NCATS MIPE library collection: SKMM1_PLB cell viability assay (AID 1919863); settings: SKMM1 myeloma viability, CellTiter-Glo ATP, 48 h; viability: stronger effect = lower value; note: nearly all actives have a fitted effect of over 35% in size
# Procedure, shortened: as §2
# [10] = Quantitative High-Throughput drug screen in 47 multiple myeloma cell lines against the NCATS MIPE library collection: UTMC2_PLB cell viability assay (AID 1919868); settings: CellTiter-Glo ATP luminescence, 48 h; series mostly up to 45.8 µM; note: nearly all actives have a fitted effect of over 55% in size
# Procedure, shortened: as §2
# HaCat = test: Cytotoxic Profiling of Annotated Libraries Using Quantitative High-Throughput Screening (AID 1296008); settings: Five cell lines viability, CellTiter-Glo ATP luminescence, 48-72 h; max response: stronger effect = lower value; note: nearly all actives have a fitted effect of over 60% in size
# Procedure, shortened: (§3)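 Cytotoxicity was measured as CellTiter-Glo ATP luminescence, read after 10 min at room temperature. Compound treatment of the cells lasted 48 or 72 hr at 37 degrees Celsius in a qHTS format.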
# KB-3-1 = test: as above; settings: Five cell lines viability, CellTiter-Glo ATP luminescence, 48-72 h; max response: stronger effect = lower value
# Procedure, shortened: as §3
# NIH3T3 = test: as above; settings: Five cell lines viability, CellTiter-Glo ATP luminescence, 48-72 h; max response: stronger effect = lower value
# Procedure, shortened: as §3
# MCC-13 = test: qHTS assay to identify novel small-molecules to repurpose for Merkel cell carcinoma treatment (AID 1296009); settings: MCC and control cell lines, CellTiter-Glo viability, 72 h; series mostly up to 46 µM; note: nearly all actives have a fitted effect of over 60% in size
# Procedure, shortened: (§4)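 After compound transfer in DMSO, plates were kept 72 hr at 37 degree celsius. Luminescent ATP signal from CellTiter-Glo served as viability measure, normalized against DMSO and no-cell controls.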
# UISO = test: as above; settings: MCC and control cell lines, CellTiter-Glo viability, 72 h; activity change, negative = cytotoxicity: at 46 µM (top of the series)
# Procedure, shortened: as §4
# WaGa = test: as above; settings: MCC and control cell lines, CellTiter-Glo viability, 72 h; series mostly up to 46 µM
# Procedure, shortened: as §4
# SKOV3 = test: Primary qHTS to identify gynecologic anti-cancer compounds using libraries of approved drugs and bioactive compounds (AID 1345084); settings: Gynecologic cancer cell panel viability, ATPlite luminescence, 48 h; series mostly up to 57.5 µM; note: nearly all actives have a fitted effect of over 55% in size
# Procedure, shortened: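 ATP-based viability (ATPlite), 1,000 cells/well, 16 h pre-incubation, 48 h compound at 37 C, 5% CO2, 15 min RT before read.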
# [11] = Quantitative High-Throughput drug screen in 47 multiple myeloma cell lines against the NCATS MIPE library collection: Karpas417_ECACC cell viability assay (AID 1918961); settings: Karpas417 myeloma viability, CellTiter-Glo ATP luminescence, 48 h; series mostly up to 45.8 µM
# Procedure, shortened: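 We plated 500 myeloma cells per well, pinned in MIPE 4.0 compounds, and incubated for 48 hours at 37C. ATP was then quantified with CellTiter-Glo, with DMSO and media-only wells defining 100% and 0%.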
# MKL-1 = test: qHTS assay to identify novel small-molecules to repurpose for Merkel cell carcinoma treatment (AID 1296009); settings: MCC and control cell lines, CellTiter-Glo viability, 72 h; activity change, negative = cytotoxicity: at 46 µM (top of the series); note: nearly all actives have a fitted effect of over 60% in size
# Procedure, shortened: as §4
# MKL-2 = test: as above; settings: MCC and control cell lines, CellTiter-Glo viability, 72 h; activity change, negative = cytotoxicity: at 46 µM (top of the series)
# Procedure, shortened: as §4
# Potency is the fitted concentration of half-maximal effect; tags give direction and shape of the fitted curve.
structure (smiles),measurement,setting,value
COc1cc(C(C)C)c2c(c1)S(=O)(=O)N(COc1cc(=O)n3cccc(OCCN4CCCCC4)c3n1)C2=O,Potency,[1],"inconclusive: 33.2 µM [inhibitor, single point]"
same,Potency,[2],"inconclusive: 9.35 µM [cytotoxic, partial curve, poor fit]"
same,Potency,[3],"inconclusive: 43.2 µM [cytotoxic, single point]"
same,Potency,[4],inactive
same,Potency,[5],"inconclusive: 29.6 µM [cytotoxic, single point]"
same,Potency,[6],"inconclusive: 37.2 µM [cytotoxic, single point]"
same,Potency,[7],inactive
same,Potency,[8],"inconclusive: 33.2 µM [cytotoxic, single point]"
same,Potency,[9],"inconclusive: 20.9 µM [cytotoxic, partial curve, poor fit]"
same,Potency,[10],active: 26.4 µM
same,outcome,HaCat,inactive
CC(=O)O[C@@]12CO[C@@H]1C[C@H](O)[C@@]1(C)C(=O)[C@H](O)C3=C(C)[C@@H](OC(=O)[C@H](O)[C@@H](NC(=O)OC(C)(C)C)c4ccccc4)C[C@@](O)([C@@H](OC(=O)c4ccccc4)[C@H]21)C3(C)C,Potency,[2],"inconclusive: 0.0042 µM [cytotoxic, full curve]"
same,Potency,[3],"inconclusive: 0.0031 µM [cytotoxic, full curve, poor fit]"
same,Potency,[5],"inconclusive: 0.0042 µM [cytotoxic, full curve]"
same,Potency,HaCat,"inconclusive: 3.8 nM [inhibitor, full curve, poor fit]"
same,Potency,KB-3-1,"inconclusive: 7.3 nM [inhibitor, full curve] and active: 7.3 nM"
same,Potency,NIH3T3,active: 0.0084 µM
same,Potency,MCC-13,"inconclusive: 0.0211 µM [inhibitor, full curve]"
same,Potency,UISO,"inconclusive: 0.0033 µM [inhibitor, full curve, poor fit]"
same,Potency,WaGa,"inconclusive: 0.0024 µM [inhibitor, full curve, poor fit]"
same,Potency,SKOV3,inconclusive: 0.1 µM
Cc1cc(Nc2nc(N[C@@H](C)c3ncc(F)cn3)ncc2Cl)n[nH]1,Potency,[4],"inconclusive: 37.2 µM [cytotoxic, single point]"
same,Potency,[5],"inconclusive: 4.69 µM [cytotoxic, full curve, poor fit]"
same,Potency,[11],"inconclusive: 8.33 µM [rising, full curve, poor fit]"
same,Potency,[6],"inconclusive: 33.2 µM [cytotoxic, single point]"
same,Potency,[8],"inconclusive: 10.5 µM [cytotoxic, partial curve]"
same,Potency,[9],"inconclusive: 33.2 µM [cytotoxic, single point]"
same,Potency,[10],active: 6.62 µM
same,Potency,HaCat,"inconclusive: 37200 nM [inhibitor, single point]"
same,Potency,KB-3-1,"inconclusive: 33.2 µM [inhibitor, single point] and inconclusive: 1.3 µM [inhibitor, full curve]"
same,Potency,NIH3T3,active: 8.2 µM
same,Potency,MKL-1,"inconclusive: 26.4 µM [inhibitor, partial curve, poor fit]"
same,Potency,MKL-2,"inconclusive: 18.7 µM [inhibitor, partial curve, poor fit]"
same,Potency,UISO,"inconclusive: 26.4 µM [inhibitor, single point]"
same,Potency,SKOV3,"inconclusive: 25.1 µM [cytotoxic, partial curve, poor fit]"
CC(=O)Nc1sc2c(c1-c1nc3ccccc3s1)CNC2,Potency,[2],"inconclusive: 18.7 µM [cytotoxic, partial curve, poor fit]"
same,Potency,[5],active: 10.5 µM
same,Potency,[11],"inconclusive: 33.2 µM [rising, single point]"
same,Potency,[7],"inconclusive: 26.4 µM [cytotoxic, single point]"
same,Potency,[9],active: 16.6 µM
same,Potency,[10],"inconclusive: 16.6 µM [cytotoxic, partial curve, poor fit]"
same,Potency,HaCat,"inconclusive: 37.2 µM [inhibitor, single point] and inconclusive: 18.4 µM [inhibitor, partial curve, poor fit]"
same,Potency,KB-3-1,"active: 23.5 µM and inconclusive: 29.1 µM [inhibitor, single point]"
same,Potency,NIH3T3,"inconclusive: 29.6 µM [inhibitor, single point]"
same,Potency,MKL-1,"inconclusive: 33.2 µM [inhibitor, single point]"
same,Potency,MKL-2,"inconclusive: 33.2 µM [inhibitor, single point]"
same,Potency,WaGa,"inconclusive: 23.5 µM [inhibitor, single point]"
same,Potency,SKOV3,"inconclusive: 39.8 µM [cytotoxic, single point]"
CCN(CC)CCn1c(=O)c(Cc2ccc(OC)cc2)nc2ccccc21,Potency,[11],inactive
same,Potency,[6],"inconclusive: 0.0037 µM [rising, full curve, poor fit]"
same,Potency,[8],"inconclusive: 10.5 µM [rising, single point]"
same,Potency,[10],"inconclusive: 0.003 µM [rising, full curve, poor fit]"
O=S(=O)(N=Cc1c(O)ccc2ccccc12)c1cccs1,Potency,[1],inactive
same,Potency,[2],"inconclusive: 0.235 µM [cytotoxic, full curve]"
same,Potency,[3],inactive
same,Potency,[11],"inconclusive: 20.9 µM [cytotoxic, partial curve, poor fit]"
same,Potency,[6],"inconclusive: 11.8 µM [cytotoxic, single point]"
same,Potency,[8],"inconclusive: 33.2 µM [cytotoxic, single point]"
same,Potency,[9],"inconclusive: 6.62 µM [cytotoxic, full curve, poor fit]"
same,Potency,[10],active: 18.7 µM
same,outcome,NIH3T3,inactive
same,Potency,UISO,"inconclusive: 20.9 µM [inhibitor, single point]"
